Out of some 310,000 compounds screened, about 14,000 (4.5%) showed an effect of 50% or more. Effects have a minus sign here. The list shows a part of the results.
Each compound was assayed against human ether-à-go-go-related gene (hERG) potassium channel (human, UniProt Q12809) (assay: primary screen, population patch clamp on CHO cells stably expressing hERG).
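Also: peak tail current of the secondary pulse compared with the same well before compound.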

Sequence of human ether-à-go-go-related gene (hERG) potassium channel (Q12809 whole entry, looked up): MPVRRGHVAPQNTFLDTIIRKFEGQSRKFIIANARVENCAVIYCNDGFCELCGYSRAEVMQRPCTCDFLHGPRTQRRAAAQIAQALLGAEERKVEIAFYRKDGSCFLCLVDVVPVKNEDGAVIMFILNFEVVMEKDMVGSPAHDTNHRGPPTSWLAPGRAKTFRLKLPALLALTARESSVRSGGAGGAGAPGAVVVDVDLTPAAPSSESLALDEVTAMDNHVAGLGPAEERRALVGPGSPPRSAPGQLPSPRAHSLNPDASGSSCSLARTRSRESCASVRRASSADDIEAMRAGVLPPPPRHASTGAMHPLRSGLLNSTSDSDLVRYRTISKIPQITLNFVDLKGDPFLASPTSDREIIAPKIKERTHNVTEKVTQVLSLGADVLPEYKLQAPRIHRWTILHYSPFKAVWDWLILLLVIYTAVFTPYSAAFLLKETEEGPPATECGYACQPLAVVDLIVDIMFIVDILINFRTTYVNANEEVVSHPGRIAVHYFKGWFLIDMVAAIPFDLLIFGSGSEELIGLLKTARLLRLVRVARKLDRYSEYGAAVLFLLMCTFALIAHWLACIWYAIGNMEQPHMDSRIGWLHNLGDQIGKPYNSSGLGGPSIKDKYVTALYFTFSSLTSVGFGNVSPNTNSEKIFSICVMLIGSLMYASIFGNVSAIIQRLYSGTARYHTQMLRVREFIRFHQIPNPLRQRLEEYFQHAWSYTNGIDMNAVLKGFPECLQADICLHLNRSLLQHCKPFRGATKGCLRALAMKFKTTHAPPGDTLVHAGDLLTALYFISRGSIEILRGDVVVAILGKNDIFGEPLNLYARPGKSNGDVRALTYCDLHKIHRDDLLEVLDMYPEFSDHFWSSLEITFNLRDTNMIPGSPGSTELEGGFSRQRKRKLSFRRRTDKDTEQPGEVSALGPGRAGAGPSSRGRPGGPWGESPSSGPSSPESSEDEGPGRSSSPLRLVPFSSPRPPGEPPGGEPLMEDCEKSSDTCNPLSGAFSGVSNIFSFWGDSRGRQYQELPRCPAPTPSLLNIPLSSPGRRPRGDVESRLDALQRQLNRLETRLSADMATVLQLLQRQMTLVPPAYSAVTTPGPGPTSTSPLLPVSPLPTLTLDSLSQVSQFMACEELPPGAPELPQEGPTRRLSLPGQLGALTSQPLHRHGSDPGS

| Compound | hERG current change (%, negative = inhibition) at 10uM [%] |
| --- | --- |
| Cc1csc(NC(=O)CSc2nnc(C)s2)n1 | 9.23 |
| O=C(NCC1CCCCC1)c1cccc(Br)c1 | -3.31 |
| COc1ccccc1-c1nc(C#N)c(N2CCC(C(N)=O)CC2)o1 | 1.14 |
| O=C(NC1CCCc2c1cnn2-c1cc(F)cc(F)c1)c1ccccn1 (centres unmarked) | -52.4 |
| CCC(C(=O)NC1CCCC1)N(C(=O)Cn1nnc(-c2ccc(OC)c(OC)c2)n1)c1cccc(O)c1 (centres unmarked) | 0.163 |
| O=C(O)c1ccc(-n2c(=O)c3ccccc3c3ccccc3c2=O)cc1 | 14.4 |
| CN1C(=O)Cc2cc(S(=O)(=O)N3CCN(c4ccc(Cl)cc4)CC3)ccc21 | -2.2 |
| COc1cc(CNCCc2ccc(S(N)(=O)=O)cc2)ccc1OCC(=O)NC(C)(C)C.Cl | 9.88 |
| Cc1cc(C)nc(-n2nc(C)cc2NC(=O)CN2CCCC2)n1 | -34.1 |
| Cc1cccc(Oc2nc(-c3ccccn3)nc3ccccc23)c1 | -12.1 |
| COc1ccc(NC(=S)Nc2ccccc2F)c(OC)c1 | 19.9 |
| CN1C(=O)CSC1=NC12CC3CC(CC(C3)C1)C2 | -6.85 |
| COc1ccc(S(=O)(=O)N2CCOC2CNC(=O)C(=O)NCCc2ccc(S(N)(=O)=O)cc2)cc1 (centres unmarked) | 19 |
| CSc1ccc(C(=O)C2CCCN(S(=O)(=O)N(C)C)C2)cc1 (centres unmarked) | 10.5 |
| CC(C)CC(=O)N=Nc1c(O)[nH]c2ccccc12 | 2.7 |
| Cc1nc(C(=O)N2CCOCC2)sc1C1(C)CC(c2ccccc2)=NO1 (centres unmarked) | -7.45 |
| COc1ccc(-n2c(C)cc(/C=C3\C(=N)N4N=C(CC(=O)N5CCOCC5)SC4=NC3=O)c2C)cc1 | 8.34 |
| COC(=O)/C=C1/S/C(=N/NC(=O)c2ccccc2OC)NC1=O | 26.4 |
| O=[N+]([O-])c1ccc(CSc2ccc(-c3ccccn3)nn2)cc1 | -4.56 |
| CCCCCCCCN1[C@@H](CC(C)=O)c2cc(C(F)(F)F)ccc2S1(=O)=O | -3.95 |
| COc1ccc(NC(=O)Cc2ccc(Cl)cc2Cl)cn1 | -3.87 |
| CCS(=O)(=O)N1Cc2ccccc2CC1C(=O)Nc1ccc(C)cc1 (centres unmarked) | -14 |
| O=C(N/N=C/c1cc(Br)cc(Cl)c1O)c1ccc2c(c1)OCO2 | 7.63 |

| Compound | hERG current change (%, negative = inhibition) at 10uM [%] |
| --- | --- |
| Cc1ccc([C@@H]2CC=C(C(=O)O)[C@H](c3ccc(Cl)cc3)N2S(=O)(=O)c2ccc(C)cc2)cc1 | 13.4 |
| CCn1c(SCc2nc3sc(C(=O)O)c(C)c3c(=O)[nH]2)nc2ccccc21 | 3.32 |
| CC(=O)c1ccc(OC(=O)CN2C(=O)c3ccccc3C2=O)cc1 | 16.8 |
| CSc1nc(N(C)CCO)c2sc3nc(-c4ccco4)c4c(c3c2n1)CCC4 | 1.18 |
| COc1ccccc1CN(C)CC(=O)Nc1cccc2ccccc12 | -12.7 |
| O=C(O)CSc1nc2ccccc2n1Cc1ccccc1 | 0.664 |
| Cc1cccc(NC(=O)CC2S/C(=N/c3nccs3)N(C)C2=O)c1 (centres unmarked) | 1.69 |
| CCc1cccc2c(C(=O)CCl)c[nH]c12 | -14.3 |
| CCOc1ccc(C2=CSC3=NCCN23)cc1Cl | -22.8 |
| Cc1ccc(C(=O)Cn2cccn2)cc1 | 23.7 |
| O=C(O)c1c(C(=O)O)c(-c2ccc(Cl)c(Cl)c2)n2c1CSC2 | 28.2 |
| CC(C)(C)C(=O)NCCCc1ccccc1 | -18.7 |
| COc1cnc(-c2ccccn2)nc1N(C)C | -1.39 |
| N=C1N(/N=C/c2ccccc2)C(=Nc2ccccc2)C(=S)N1c1ccccc1 | 2.03 |
| CC(C)Oc1ccc(CCc2nnc(SC(C)C(=O)O)n2-c2ccccc2)cc1 (centres unmarked) | 5.67 |
| CCN(CC(=O)NCc1ccc(F)cc1)C(=O)COc1ccc(C)c(C)c1 | -53.6 |
| Cc1ccc(Nc2nc(N)nc(CN3CCCCCC3)n2)cc1 | -72.1 |
| COC(=O)c1ccc(N=NN2CCCCCC2)cc1 | 6.38 |
| CCCNC(=O)c1ccccc1NC(=O)c1ccccc1N(C)S(=O)(=O)c1ccccc1 | -3.98 |
| COC(=O)C1=C(C)Nc2c(c(=O)n(C)c(=O)n2C)C1c1cccnc1 (centres unmarked) | -2.61 |
| CCOCC(=O)Nc1ccc(C)c(Cl)c1 | -0.343 |
| c1cc(C(c2nnnn2C2CCCC2)N2CCOCC2)ccn1 (centres unmarked) | 0.132 |
| CN(Cc1ccccc1)C(=O)c1ncn(C)c1C(=O)N(C)Cc1ccccc1 | 8.39 |

| Compound | hERG current change (%, negative = inhibition) at 10uM [%] |
| --- | --- |
| Cc1ccc(S(=O)(=O)NCCCNS(=O)(=O)c2ccccc2)cc1 | -7.76 |
| Clc1ccc(-c2onc3c2CCCC3)cc1 | 6.27 |
| CCCCNC(=S)NC(C)(C)CO | 11.8 |
| COCCn1c(C2CCCCC2)nc2sc3ccccc3c(=O)c2c1=O | -5.29 |
| CCn1c(SCC(=O)Nc2ccc3[nH]c(=O)[nH]c3c2)nnc1-c1ccccc1 | -16.1 |
| CCNc1nc(NC(C)C)nc(N(C#N)C(C)C(=O)N(CC)CC)n1 (centres unmarked) | -19.9 |
| CC(C)(C)N(Cc1ccccc1)C(=O)COc1cccnc1[N+](=O)[O-] | 8.46 |
| CCn1cc(CN2CCC(n3nccc3NC(=O)CCOc3ccccc3)CC2)c(C)n1 | 7.84 |
| Cc1cc2c(cc1S(=O)(=O)NCc1ccc(N(C)C)cc1)OCC(=O)N2 | -25.7 |
| Cc1ccc(Sc2ncccc2/C=N/O)cc1 | -33.9 |
| CCOC(=O)C1(Cc2cccc(F)c2)CCN(CCCn2cccn2)CC1 | -74.6 |
| COCCCN(C(=S)Nc1cccc(Cl)c1)C(C)c1ccncc1 (centres unmarked) | -17.3 |
| COc1ccc(C(C(=O)NCC2CCCO2)N(Cc2ccccc2)C(=O)c2snc(C(N)=O)c2N)cc1OC (centres unmarked) | 8.27 |
| NC(=O)[C@@H]1CCCN1Cc1nc(Cc2ccccc2Cl)no1 | 14.5 |
| COc1ccc(CN(C(=O)c2snc(C(N)=O)c2N)C(C(=O)NC(C)(C)C)c2ccco2)cc1 (centres unmarked) | -3.85 |
| Cc1ccc(CSCC2Nc3ccc(C(=O)N4CCN(c5cccc(C)c5)C(C)C4)cc3NC2=O)cc1 (centres unmarked) | 28.9 |
| O=C(NCCOc1ccccc1F)c1cc([N+](=O)[O-])ccc1N1CCOCC1 | -45.1 |
| CCOc1ccc(N2C(=O)S/C(=C\c3ccc(O)c(OC)c3)C2=O)cc1 | 13.3 |
| N#CCc1ccc(C(=O)c2ccccc2)s1 | -4.52 |
| Cc1c(C(=O)NCc2ccco2)oc2c(Cl)cccc12 | 14.5 |
| CC(C)CCNC(=O)C1CCC(CNS(=O)(=O)c2ccc(Cl)cc2)CC1 (centres unmarked) | 19.6 |
| CCc1nccn1S(=O)(=O)c1ccc(C)c(C)c1 | 5.21 |
| Cc1nnc(Sc2nc3c(c(=O)[nH]c(=O)n3C)n2CCc2ccccc2)s1 | -21.4 |

| Compound | hERG current change (%, negative = inhibition) at 10uM [%] |
| --- | --- |
| Cc1ccc(Cl)c(OCC(=O)OCC(=O)NC2CCCc3ccccc32)c1 (centres unmarked) | 12.2 |
| Cc1ccc(S(=O)(=O)N2CCOCC2)cc1NC(=O)COC(=O)c1ccc(OCc2c(C)noc2C)cc1 | -18.6 |
| CCCCC(=O)NC(NC(=S)N1CCCCCC1)C(Cl)(Cl)Cl (centres unmarked) | 19.5 |
| Cc1ccc(C(=O)N2CCN(Cc3nc4sc5c(c4c(=O)[nH]3)CCCC5)CC2)cc1 | -76 |
| Cc1nccnc1Sc1ccccc1 | 22.4 |
| CCO[C@H]1OC(C(=O)NCc2nc3ccccc3[nH]2)=C[C@@H](c2ccc3c(c2)OCO3)[C@@H]1CCCO | -28.9 |
| Cc1ccccc1C(O)c1ccncc1 (centres unmarked) | 1.43 |
| CCN1C(=O)c2ccc(C(=O)NCc3ccco3)cc2C1=O | 0.978 |
| Fc1cccc(Cc2noc(CN3CCOCC3)n2)c1 | 11.4 |
| CCc1nnc(NC(=O)CSc2nnc(C)n2Cc2ccccc2)s1 | -1.03 |
| COc1cc(-n2c(=O)c3ccccc3n(Cc3ccccc3)c2=O)cc(OC)c1OC | -2.73 |
| O=C(Nc1cccc(C(F)(F)F)c1)c1ccc(-n2cncn2)nc1 | -19.5 |
| Cc1ccc(N2CCN(C(=S)c3ccc(N(C)C)cc3)CC2)cc1 | -6.33 |
| COc1ccc(C(CNC(=O)C(Cc2ccccc2)NC(N)=O)N(C)C)cc1 (centres unmarked) | 12.3 |
| CC(=O)N1c2ccc([N+](=O)[O-])cc2NC(=O)CC1C (centres unmarked) | 22.2 |
| O=C(CCN1C(=O)/C(=C/c2ccccc2)SC1=S)NNC(=O)c1ccncc1 | 7.05 |
| Cc1nc2c(C(=O)NCCC(C)C)c[nH]n2c(=O)c1Cc1ccccc1F | -1.66 |
| COc1ccc(N(C(=O)c2ccco2)S(=O)(=O)c2cc(Cl)c(Cl)cc2Cl)cc1 | -8.39 |
| CC1(C)C(O)=C(c2nc3ccccc3[nH]2)C(=N)N1c1ccccc1 | -7.22 |
| CC(=O)Nc1ccc(S(=O)(=O)N2CCC(C(=O)NCCC(=O)Nc3ccccc3)CC2)cc1 | 16.9 |

Source: PMC4336329 (PLoS ONE, 2015)
